Results from the supplement of paper PMC9135407.
“And” between values parts separate entries of the source, which are not always exact repeats. Equal values may be shown once. Where a name gives a salt, the structure may show the parent alone. Screen size: about 5,800 compounds; about 620 (11%) showed activity.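 Rule for the calls: active = score above a cut-off or among the top three wells of a plate; in these data no inactive exceeds 0.85.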 This is a selection; strong and weak results do not stand in their true shares.

Tested on: primary human hepatic stellate cells (donor 1)
Experiment: scaled lipid accumulation score (0 = DMSO-like, 1 = nortriptyline-like); higher = stronger HSC inactivation (lipid re-accumulation), active = hit call of the paper
Details: 48 h
[1] = library stock concentration: 80 uM
[2] = library stock concentration: 400 uM
[3] = library stock concentration: 2 mM
[4] = library stock concentration: 10 mM
[5] = library stock concentration: 3.33 mM

COc1cc(Nc2ncc3c(n2)-c2ccc(Cl)cc2C(c2c(F)cccc2OC)=NC3)ccc1C(=O)O [Alisertib]
scaled lipid accumulation score [1]: inactive: ≤ 0
scaled lipid accumulation score [2]: inactive: ≤ 0
scaled lipid accumulation score [3]: inactive: ≤ 0
scaled lipid accumulation score [4]: inactive: ≤ 0

COc1cc(Nc2ncc3c(n2)-c2ccc(Cl)cc2C(c2c(F)cccc2OC)=NC3)ccc1C(=O)O [Alisertib (MLN8237)]
scaled lipid accumulation score [5]: inactive: ≤ 0
scaled lipid accumulation score [4]: inactive: ≤ 0

OC(CCN1CCCCC1)(c1ccccc1)c1ccccc1 [Pridinol methanesulfonate salt]
scaled lipid accumulation score: inactive: 0.044

OC(CCN1CCCCC1)(c1ccccc1)c1ccccc1 [Pridinol methanesulfonate]
scaled lipid accumulation score [4]: inactive: ≤ -0.027

C=CCNc1ncnc2ccc(Br)cc12
scaled lipid accumulation score [4]: inactive: ≤ 0

OCC(CO)N[C@H]1C[C@](O)(CO)[C@@H](O)[C@H](O)[C@H]1O [Voglibose]
scaled lipid accumulation score [5]: inactive: ≤ 0
scaled lipid accumulation score [4]: inactive: 0.073 and inactive: 0.011

N[C@@H](CO)c1ccccc1 [(R)-(-)-2-Phenylglycinol]
scaled lipid accumulation score (library stock concentration: 1 mM): inactive: ≤ 0

Cc1ccc([C@@H]2O[C@H](CO)[C@@H](O)[C@H](O)[C@H]2O)cc1Cc1ccc(-c2ccc(F)cc2)s1 [Canagliflozin]
scaled lipid accumulation score [5]: inactive: ≤ 0
scaled lipid accumulation score [4]: inactive: ≤ 0

CC(C)(C)c1cc(C(C)(C)C)c(NC(=O)c2c[nH]c3ccccc3c2=O)cc1O [Ivacaftor (VX-770)]
scaled lipid accumulation score [5]: inactive: 0.075
scaled lipid accumulation score [4]: inactive: ≤ 0

Cc1ccc(C(=O)Nc2cccc(C(F)(F)F)c2)cc1-c1ccc2nc(NCCN3CCOCC3)ncc2c1
scaled lipid accumulation score [4]: active: 1.34

CC(=O)N(CC(O)CO)c1c(I)c(C(=O)NCCO)c(I)c(C(=O)NCC(O)CO)c1I (stereo unspecified)
scaled lipid accumulation score [4]: inactive: ≤ 0

CN1CCN(CC(=O)N2c3ccccc3C(=O)Nc3cccnc32)CC1 [Pirenzepine dihydrochloride]
scaled lipid accumulation score: inactive: ≤ 0
scaled lipid accumulation score [4]: inactive: ≤ 0

CN1CCN(CC(=O)N2c3ccccc3C(=O)Nc3cccnc32)CC1 [Pirenzepine hydrochloride]
scaled lipid accumulation score (library stock concentration: 4.7 mM): inactive: ≤ 0
scaled lipid accumulation score [4]: inactive: ≤ 0

CN1CCN(CC(=O)N2c3ccccc3C(=O)Nc3cccnc32)CC1 [Pirenzepine 2HCl]
scaled lipid accumulation score (library stock concentration: 5.7 mM): inactive: ≤ -0.006

CN(CCCCCCCCCCN(C)C(=O)Oc1cccc([N+](C)(C)C)c1)C(=O)Oc1cccc([N+](C)(C)C)c1 [Demecarium bromide]
scaled lipid accumulation score: inactive: ≤ 0

CC(=O)N(CC(O)CO)c1c(I)c(C(=O)NCC(O)CO)c(I)c(C(=O)NCC(O)CO)c1I (stereo unspecified) [Iohexol]
scaled lipid accumulation score: inactive: ≤ 0

COC(=O)Nc1nc2cc(Sc3ccccc3)ccc2[nH]1 [Fenbendazole]
scaled lipid accumulation score: inactive: 0.055
scaled lipid accumulation score [5]: inactive: 0.145
scaled lipid accumulation score (library stock concentration: 6.7 mM): inactive: 0.402 and inactive: 0.539
scaled lipid accumulation score [4]: inactive: 0.19 and inactive: 0.069

CCCCC/C=C\C[C@@H](O)/C=C/C=C\C/C=C\CCCC(=O)O
scaled lipid accumulation score (library stock concentration: 100 uM): inactive: ≤ -0.021

COCC(=O)NC/C=C/c1ccc2ncnc(Nc3ccc(Oc4ccc(C)nc4)c(C)c3)c2c1
scaled lipid accumulation score [1]: inactive: ≤ 0
scaled lipid accumulation score [2]: inactive: ≤ 0 and inactive: ≤ -0.005
scaled lipid accumulation score [3]: inactive: ≤ 0 and inactive: ≤ -0.005
scaled lipid accumulation score [4]: inactive: 0.108

Cn1c(=O)c2c(ncn2CC2OCCO2)n(C)c1=O [Doxofylline]
scaled lipid accumulation score [5]: inactive: ≤ 0
scaled lipid accumulation score (library stock concentration: 7.5 mM): inactive: 0.036
scaled lipid accumulation score [4]: inactive: ≤ -0.001

CCN(CC)CCCCNc1ncc2cc(-c3cc(OC)cc(OC)c3)c(NC(=O)NC(C)(C)C)nc2n1
scaled lipid accumulation score [3]: active: 1.12
scaled lipid accumulation score [4]: active: 1.22

C=CC(=O)Nc1cccc(Sc2nc(Nc3ccc(N4CCN(C)CC4)cc3)ncc2Cl)c1
scaled lipid accumulation score [5]: inactive: ≤ 0
scaled lipid accumulation score [4]: inactive: 0.466

CCCCNc1ncc(C(=O)NCc2ccc(-n3ccnc3)cc2)c(NC2CCC(O)CC2)n1 (stereo unspecified)
scaled lipid accumulation score [5]: inactive: 0.129
scaled lipid accumulation score [4]: inactive: 0.435

CC(CN(C)C)CN1c2ccccc2Sc2ccccc21.O=C(O)C(O)C(O)C(=O)O (stereo unspecified) [Trimeprazine tartrate]
scaled lipid accumulation score (library stock concentration: 4.5 mM): active: 0.915

CCOC(=O)[C@H]1O[C@@H]1C(=O)N[C@@H](CC(C)C)C(=O)NCCC(C)C [Aloxistatin]
scaled lipid accumulation score [5]: inactive: ≤ -0.009
scaled lipid accumulation score [4]: inactive: ≤ 0

NC(Cn1ccc(=O)c(O)c1)C(=O)O (stereo unspecified) [Mimosine]
scaled lipid accumulation score: inactive: ≤ 0
scaled lipid accumulation score [4]: inactive: ≤ 0

c(c1N)(C(=O)\N=C(\N)/N)nc(c(N2CCCCCC2)n1)Cl [5-(N,N-hexamethylene)amiloride]
scaled lipid accumulation score [4]: active: 1.13

CC(=O)OC[C@H]1O[C@@H]([S-])[C@H](OC(C)=O)[C@@H](OC(C)=O)[C@@H]1OC(C)=O.CCP(CC)CC.[Au+] [Auranofin]
scaled lipid accumulation score [4]: inactive: 0.439

CNCc1cn(C2CCN(CCC(C)CC(C)(C)C)CC2)nn1 (stereo unspecified)
scaled lipid accumulation score [4]: active: 1.05

COc1cc(Nc2c(C#N)cnc3cc(OCCCN4CCN(C)CC4)c(OC)cc23)c(Cl)cc1Cl [Bosutinib (SKI-606) (0.4 mM)]
scaled lipid accumulation score [2]: inactive: ≤ -0.005

COc1cc(Nc2c(C#N)cnc3cc(OCCCN4CCN(C)CC4)c(OC)cc23)c(Cl)cc1Cl [Bosutinib (SKI-606)]
scaled lipid accumulation score [5]: inactive: 0.374
scaled lipid accumulation score [4]: inactive: 0.395

COc1cc(Nc2c(C#N)cnc3cc(OCCCN4CCN(C)CC4)c(OC)cc23)c(Cl)cc1Cl [Bosutinib (SKI-606) (10 mM)]
scaled lipid accumulation score [4]: inactive: 0.388

COc1cc(Nc2c(C#N)cnc3cc(OCCCN4CCN(C)CC4)c(OC)cc23)c(Cl)cc1Cl [Bosutinib (SKI-606) (2 mM)]
scaled lipid accumulation score [3]: inactive: 0.096

COc1cc(Nc2c(C#N)cnc3cc(OCCCN4CCN(C)CC4)c(OC)cc23)c(Cl)cc1Cl [Bosutinib]
scaled lipid accumulation score [1]: inactive: ≤ -0.016
scaled lipid accumulation score [2]: inactive: ≤ -0.016
scaled lipid accumulation score [3]: inactive: ≤ -0.016
scaled lipid accumulation score [4]: inactive: ≤ -0.016

CCCCc1oc2ccc(NS(C)(=O)=O)cc2c1C(=O)c1ccc(OCCCN(CCCC)CCCC)cc1 [Dronedarone HCl]
scaled lipid accumulation score [5]: inactive: 0.642
scaled lipid accumulation score [4]: inactive: 0.263

Cc1ccc(Nc2cc(-c3cccc(N4C(=O)c5ccccc5C4=O)c3)ncn2)cc1NS(C)(=O)=O
scaled lipid accumulation score [1]: inactive: 0.083
scaled lipid accumulation score [2]: inactive: ≤ -0.016
scaled lipid accumulation score [3]: inactive: ≤ -0.016
scaled lipid accumulation score [4]: inactive: 0.08
